# Values joined by “and” are separate entries in the source; they are usually repeats but may differ in a detail not shown here. Equal entries are not always repeated. In all, about 110,000 compounds went through this assay and about 230 (0.21%) showed an effect of 50% or more. This is one part of the list.
# Molecular target: DPAP1 (Plasmodium falciparum, UniProt Q8IIJ9)
# Assay: primary screen, percent inhibition; read by cleavage of a fluorogenic dipeptide substrate; higher = more effect of the substance
# Set-up: species or system P. falciparum D10 trophozoite lysates; single well
# 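Further: 30 min substrate incubation versus DMSO and 10 µM JCP410 controls.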
# Sequence of DPAP1 (Q8IIJ9 whole entry, looked up): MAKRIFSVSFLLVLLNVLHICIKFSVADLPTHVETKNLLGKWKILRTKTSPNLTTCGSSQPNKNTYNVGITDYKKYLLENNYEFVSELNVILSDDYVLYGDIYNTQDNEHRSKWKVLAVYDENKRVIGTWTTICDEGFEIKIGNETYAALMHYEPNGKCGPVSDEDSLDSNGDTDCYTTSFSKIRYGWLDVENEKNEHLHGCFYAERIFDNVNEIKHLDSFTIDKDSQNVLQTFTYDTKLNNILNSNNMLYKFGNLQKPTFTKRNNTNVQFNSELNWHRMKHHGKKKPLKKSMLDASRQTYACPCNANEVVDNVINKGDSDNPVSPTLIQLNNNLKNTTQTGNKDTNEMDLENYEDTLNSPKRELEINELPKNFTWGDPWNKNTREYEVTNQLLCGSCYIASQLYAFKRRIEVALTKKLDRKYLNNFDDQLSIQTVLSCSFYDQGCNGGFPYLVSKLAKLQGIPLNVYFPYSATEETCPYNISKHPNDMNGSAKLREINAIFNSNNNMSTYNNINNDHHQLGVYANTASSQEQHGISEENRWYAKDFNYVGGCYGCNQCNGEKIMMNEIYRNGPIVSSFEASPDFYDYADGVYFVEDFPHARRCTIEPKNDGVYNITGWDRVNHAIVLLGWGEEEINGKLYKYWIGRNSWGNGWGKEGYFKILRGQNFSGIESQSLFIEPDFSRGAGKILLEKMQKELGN
row,Compound,% Inhibition @ 10 uM
1,Cc1ccccc1/C=C1/NC(=O)NC1=O,3.8%
2,Cc1ccsc1CN1CCN(c2ccc([N+](=O)[O-])cc2)CC1,-6.21%
3,COc1ccc(N2CCN(c3ccc(NC(=O)CCC(=O)O)cc3)CC2)cc1,5.15%
4,CC(=O)NS(=O)(=O)c1ccc(NC(=O)c2ccc(-c3cccc(Cl)c3C)o2)cc1,2.01%
5,COc1ccc2nc(C)cc(Nc3ccc(Cl)cc3)c2c1,0.0345%
6,CCCOc1ccc(CN(C(=O)c2cc(=O)c3ccccc3o2)C2CCS(=O)(=O)C2)cc1 (stereo not drawn),0.248%
7,O=C(c1ccco1)N1CCN(C(=O)c2noc3c2CCCC3)CC1,-8.54%
8,CSC1=NSC2=NC(=O)/C(=C\c3ccc(-c4ccc(C(=O)O)cc4)o3)C(=N)N12,1.9%
9,O=C(c1ccccc1)N(c1ccc(Br)cc1)C1C2CC3CC(C2)CC1C3 (stereo not drawn),-1.96%
10,Cn1c(C(=O)O)c(CNCCc2ccc(S(N)(=O)=O)cc2)c2ccccc21,1.93%
11,CCn1c(NC(=O)COc2cccc(C(F)(F)F)c2)nc2ccccc21,-1.88%
12,COC(=O)c1nn2c(C(F)(F)F)cc(-c3ccccc3)nc2c1Br,1.87%
13,N#CC1(NC(=O)[C@H](Cc2cc(Cl)c(O)c(Cl)c2)NC(=O)c2ccc(Cl)cc2)CC1,1.7%
14,Cc1ccc(-c2[nH]nc3c2C(c2ccc(Cl)cc2Cl)NC3=O)cc1 (stereo not drawn),0.208%
15,CC(=O)Nc1ccc(S(=O)(=O)N2CCCCC2)cc1,-6.22%
16,Cc1ccc(CNC(=O)/C=C/c2ccco2)cc1,1.88%
17,COc1cc(Cl)cc(/C=N/c2sc3c(c2C#N)C2CCN3CC2)c1O,-5.51%
18,COc1cc(OC)cc(C(=O)Nc2ccc(Cl)cc2)c1,-4.15%
19,CCOC(=O)c1[nH]c(C)c(C(=O)CC(C)(C)C)c1C,-2.42%
20,CCCC1=C(C(=O)OCC)C(c2ccc(OC)cc2OC)NC(=O)N1 (stereo not drawn),3.61%
21,COc1ccc(C(=O)n2nc(C)c(Sc3ccccc3)c2C)cc1,12%

row,Compound,% Inhibition @ 10 uM
1,O=C(COc1ccc(Cl)cc1)Nc1ccc(S(=O)(=O)Nc2ccccc2)cc1,2.01%
2,CC(C)(C)C(/C=C/c1ccc(Cl)cc1Cl)NC(=O)C1(N2CCC2=O)CCCCC1 (stereo not drawn),15.3%
3,Cc1ccc2oc(=O)c3cnn(CC(=O)NCCc4ccsc4)c3c2c1,-5.25%
4,O=C(Nc1cccnc1)c1cc2ccc3cccnc3c2[nH]1,-3.65%
5,O=S(=O)(c1ccc(Cl)cc1)N1CCN(Cc2cccc(F)c2)CC1,-7.18%
6,CC1=C(C(=O)Nc2ccc(Cl)cc2)C(c2ccc(O)cc2)n2nc(CCCO)nc2N1 (stereo not drawn),-6.67%
7,Cc1ccc(-c2cc(C(F)(F)F)n3ncc(C(=O)N(C)Cc4cn(C)nc4C)c3n2)cc1,3.89%
8,Cc1ccc2nc(Nc3nc(C)c(Cc4ccccc4)c(O)n3)nc(C)c2c1,5.49%
9,Cn1c2ccccc2c2cnn(CC(=O)NCCCN3CCC(Cc4ccccc4)CC3)c(=O)c21,1.41%
10,COc1cccc2c1OC(c1ccncc1)N1N=C(c3ccccc3O)CC21 (stereo not drawn),0.0719%
11,O=c1c2c3c(sc2[nH]c(=S)n1-c1ccc(Cl)cc1)CCC3,62.5%
12,Cc1ccc(C2C(c3ccc(S(=O)(=O)N(C)C)cc3)=C(O)C(=O)N2CCCN2CCOCC2)cc1 (stereo not drawn),4.74%
13,CC1CCCC(C)N1CCNc1nc2ccccc2c2nc(-c3ccccc3)nn12 (stereo not drawn),-2.42%
14,Cc1ccc(-n2nnc(-c3nsc(NC(=O)c4cccs4)n3)c2C)cc1,0.399%
15,Cn1c(Cc2ccccc2)nc2ccccc21,-3.61%
16,O=C(c1ccc2c(c1)OCO2)N1CCN(c2ccc(Cl)cc2)CC1,-2.56% and -2.74%
17,CCOC(=O)C1CCN(C2CCN(CCc3ccccc3)CC2)CC1,6.26%
18,Cc1ccc2cc(CCNS(=O)(=O)c3ccc(Br)cc3)c(O)nc2c1,0.8%
19,O=C(O)c1ccc(CNS(=O)(=O)c2cccc(C(F)(F)F)c2)cc1,1.86%
20,Cc1ccc(-c2c(C#N)c(S)nc3c2CCCC3)o1,37.9%
21,Cc1ccc(-c2onc(C)c2C)cc1S(=O)(=O)N(C)Cc1ccco1,-6.66%

row,Compound,% Inhibition @ 10 uM
1,CC(C)c1ccccc1NC(=O)COc1ccccc1,-8.53%
2,CNC(=O)c1[nH]cnc1C(=O)Nc1ccc(OC)cc1,-0.992%
3,COc1ccc(C2C3=C(O)CC(C)(C)CC3=Nc3ccccc3N2C(=O)C(F)(F)F)c(OC)c1 (stereo not drawn),0.385%
4,C=CCn1c(Cc2c[nH]c3ccccc23)nnc1SCC(=O)NCc1ccccc1,0.238%
5,O=C(NCCCN1CCOCC1)c1ccc2c(Cl)c3c(nc2c1)CCCC3,0.809%
6,COc1ccccc1CNC(=O)c1sc2nc(-c3ccc(F)cc3)ccc2c1N,-1.6%
7,Cc1ccc2c(c1)c1c3n2CCN(C/C(=N/O)c2ccc(Br)cc2)C3CCC1 (stereo not drawn),2.13%
8,COc1ccc(-c2noc(CSc3nnc(-c4ccc(Cl)cc4)n3C)n2)cc1,7.5%
9,C1=C(c2c[nH]c3ccccc23)CCNC1,1.63%
10,CCC(C)c1ccc(NC(=O)Cc2cccs2)cc1 (stereo not drawn),3.94%
11,COc1ccc(CNC(=O)c2cc3c(Cl)ccc4c3n2CCO4)cc1,-3.84%
12,Cc1nn(C(C)C(=O)NC2CCCCCC2)c(=O)c2cc3sccc3n12 (stereo not drawn),3.4%
13,O=C(NCCN1CCCC1)c1ccc(Br)cc1,-9.31%
14,CCCNC(=O)c1nnc(-c2ccc3c(c2)OCO3)o1,-10.4%
15,O=C(NCCc1c[nH]c2ccccc12)c1c(F)cccc1F,-1.43%
16,CCc1ccc(CNCc2c(C(=O)O)n(CC)c3cc(C)ccc23)cc1,0.436%
17,N#CCCn1c2ccc(Cl)cc2c2cc(Cl)ccc21,-1.97%
18,CCN(C(=O)c1ccccc1OC)c1nc(-c2ccc(C)cc2)cs1,1.72%
19,CC1CCCCN1S(=O)(=O)c1ccc(C(=O)Nc2nc3c(s2)CSc2ccccc2-3)cc1 (stereo not drawn),0.343%
20,COc1ccc(OCC(=O)Nc2cccnc2)cc1,3.79%
21,Cc1ccc(Cl)cc1NC(=O)COc1ccc(S(=O)(=O)NC(C)(C)C)cc1,-4.12%
